# Results taken from the supplement of paper PMC11417369.
# The other results are listed elsewhere or left out.
# Tested on: PF3D7_0420300 AP2 domain 1 (GST-tagged)
# Assay: gcPBM binding intensity (ln(normalized median fluorescence intensity)); higher = stronger DNA binding
# Method in brief: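 For binding intensity, the highest Masliner-normalised natural-log median intensity across replicate spots of either probe orientation was taken. Protein bound to the array was stained with Alexa488 anti-GST antibody and scanned at 488 nm. The protein, GST-tagged P. falciparum DNA-binding domains from E. coli at about 25 μg on average, had been applied for 1 h to an Agilent 4 × 180k array of primer-extended double-stranded 36-bp intergenic genomic probes and negative controls.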
row,Sequence,gcPBM binding intensity (ln)
1,ATATCTAATAAAAATACACACACATATGATTTGTGA [CACACA_site8558],9.66
2,TATATAGAATTATATGCATGTTCAAAAAAATACAAC [TGCATGCA_site431],9.36
3,TATTTTTATTTATAACGTACGAAAAATGTATATAAT [XGTACX_site703],9.16
4,GGTGTATGTTAAAGGAGTACATATATATATATATAT [XGTACX_site7727],9.3
5,CATACACATTTCATATGTACATAGATTGAAGGGAAG [XGTACX_site116],9.23
6,TTTTATATATAATTCACACAAAAAAGATACATAAGA [CACACA_site5332],9.25
7,ACAACACATATTCATCGTACATGTATTAGGAAGACA [XGTACX_site1859],9.37
8,TAAGCAAAAATAATTACACACAAATTTATAAAAAAT [CACACA_site3377],9.64
9,ATTTTGTTTTTTTTTGCACACCATAAGGAGTGTAGG [CACACA_site1414],9.25
10,ATAAAAATATAATTGAGTACATATGAATAGTCCTAT [XGTACX_site6281],9.17
11,ATTTTTTTTTTTTTTTTTTTTTTTTTTGAATTCACA [CACACA_negctrl_site982],8.89
12,TATATAAAAATATGTTGTACGCATTTATAAATATAT [XGTACX_site3758],9.19
13,AGGATAATATACAAAAGTACATAAAACTAAAAAAAC [XGTACX_site605],9.77
14,AAAGAAAGAAAGAATACACACACACCGATATATATA [CACACA_site9246],10.2
15,AACATATATTTTGAAACACACACATATATAATATAC [CACACA_site8301],9.89
16,TCCTTTTTACTACTAGTGCATTATTTACAAGGTCCG [GTGCAC_site9441],9.07
17,AATGTGTATATATATACACACACATATATATATTTT [CACACA_site8596],9.75
18,TAGTTTTTTATATATTGTACTTAGAATATATTATAT [XGTACX_site3662],9.2
19,ATATATATAAAATATTATATTAAAAAAAATAAAATA [GTGCAC_negctrl_site87],9.08

row,Sequence,gcPBM binding intensity (ln)
1,ATATAAATATATATATGTACATAATATATTATGTTT [XGTACX_site2806],9.21
2,AATTTAACCACTAAAAGTACACACATATATACATAT [XGTACX_site8352],9.68
3,GGACACCTTCAAAACACACATACAAATAAATAGAAA [CACACA_site3305],9.45
4,TTTTTCTTTTTTTCTTTTTTTATAAAACTTAATTGT [CACACA_negctrl_site384],9.12
5,AAAAAAAAAAAAAAATATATATATATATACATACAT [CACACA_negctrl_site317],9.15
6,TATTAATTATATTTATGTACATAATCATATTATTAT [XGTACX_site7938],9.37
7,AGTAACAAAAGAAAAAAATATGCAAACATATATATA [XGTACX_negctrl_site468],9.45
8,TTCATTTTTTGCTTTCAACACACATACAATATATAT [CACACA_site9369],9.58
9,AGAAATATATATATATATATATATATATATATATAT [TGCATGCA_negctrl_site375],9.45
10,ATAAATATCTAGGGTTCACACATTATATATCTGTAT [CACACA_site5702],9.36
11,CGTGAATATATGATATGTACTTATAAAAATTTGTGC [XGTACX_site5480],9.26
12,ACAAAGTTATAATTCTTGCACTTTAAGGTTCATTTA,9.2
13,GGTATACACAAGTATACACACATATATATATATATA [CACACA_site9063],9.37
14,TTTTCCTCTTAAAATATACACACTGATTTAAGAAAA [CACACA_site3301],8.95
15,TTTTTTTTTTTTTTTTTTTTTTTTTTGTTCAGGCCT [GTGCAC_negctrl_site143],8.54
16,ACGTAATAAAATAGTTGTACAACTTTTTATAATATA [XGTACX_site4393],9.18
17,AAACGATTAATGTGTACACACATAGTTATAAACCTA [CACACA_site2110],9.55
18,TCATAAATATGAAAAAGTACAAAGGTAGATTTTGAA [XGTACX_site4535],9.18
19,TATATATATATTATATGTACGTATGTATGTATATAT [XGTACX_site6451],9.39

row,Sequence,gcPBM binding intensity (ln)
1,TCATATATTTTATACATACACACATATATATATTTT [CACACA_site3941],9.74
2,ACGTTATACACAGTACGTACATAACTATCTAAATGT [XGTACX_site5068],9.21
3,TGGAGGTCAGTTCACAGTACCCAGGAAATCTGCGGA [XGTACX_site2556],8.75
4,ATGCATAATATACTCTTACACACCATTTCTATATAC [CACACA_site1461],9.78
5,TTCACTTTTTTTTTTTTTTTTTTTTTTTTTTTTATT [GTGCAC_negctrl_site350],9.18
6,TATAACATAGGACACACACACATACATACACAAAAA [CACACA_site5062],10.2
7,TTTACAACATCAAAATGTACGCATTATTATTATTAA [XGTACX_site3017],9
8,TGTGTATAAATATACACACACATATAAATATTTTAA [CACACA_site7005],9.42
9,TATTTAAAAAATAATACACACATAATATAACAAAAT [CACACA_site3174],9.94
10,ACATATAATATAAATTGTACATATAAATATATTATT [XGTACX_site4268],9.24
11,AAAAGTCTTCAAATTTGTACATATATATATATATAT [XGTACX_site3404],9.13
12,GGTACATACAGACACACACACAAAAAAAAAAAAATA [CACACA_site6844],9.88
13,TTAATATTAATTATATGTACATATAATATATATATA [XGTACX_site1757],9.04
14,ATCTTTTCATATTGCTGTACAAATTATTTTCATTCG [XGTACX_site492],9.57
15,TGTATAAAATTCCATTGTACATATTATTTTACGACA [XGTACX_site7764],9.11
16,GAGAAATGGAGACACACACACATATTATATATATAT [CACACA_site1532],9.89
17,ATGTTAAACAAATCTATACACACGTATATGACAAAA [CACACA_site1783],9.36
18,ATTTTGGAAATAATATGTACATATACATAATATATA [XGTACX_site4177],9.13
